Where “and” joins values, the source holds several entries; their conditions need not be identical. Equal values may be shown once. Among all 410,000 compounds or so, about 6,400 (1.6%) were called active. Inconclusive results, whose numbers are uncertain, are shown with a selection of clear calls. Calls follow the shape of the dose curve; as a rule, active = well fitted inhibition curve with a large enough effect; inconclusive = small, poorly fitted or top-dose-only effect; inactive = no such curve, though single readings can be large or run the other way. Potencies of inconclusive entries are doubtful fits and often do not repeat.
Each compound was assayed against Glucagon-like peptide 1 receptor (Homo sapiens) (UniProt P43220) (assay: qHTS of GLP-1 Receptor Inverse Agonists (Inhibition Mode)). Conditions: HEK293 GLP-1R CRE-luciferase, luminescence, 24 h, GLP-1R form is constitutively active; activity change, negative = inhibition: at 38.3 µM (top of the series) unless noted.
Chain of UniProt P43220 (P43220 whole entry, looked up): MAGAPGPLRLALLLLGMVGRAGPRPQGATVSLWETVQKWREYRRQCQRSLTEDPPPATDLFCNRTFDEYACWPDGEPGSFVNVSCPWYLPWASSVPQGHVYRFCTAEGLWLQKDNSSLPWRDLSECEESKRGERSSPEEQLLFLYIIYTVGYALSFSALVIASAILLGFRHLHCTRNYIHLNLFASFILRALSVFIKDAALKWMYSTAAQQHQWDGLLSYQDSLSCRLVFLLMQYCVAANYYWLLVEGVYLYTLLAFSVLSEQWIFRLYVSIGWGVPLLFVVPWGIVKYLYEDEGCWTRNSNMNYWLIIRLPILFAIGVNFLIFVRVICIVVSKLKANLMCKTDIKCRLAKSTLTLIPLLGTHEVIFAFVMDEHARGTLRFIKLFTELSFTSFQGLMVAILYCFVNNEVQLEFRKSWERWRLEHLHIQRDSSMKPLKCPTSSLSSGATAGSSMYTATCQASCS
In short: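 Constitutively active GLP-1R drives a cAMP-responsive luciferase in stably transfected HEK293 cells; test compounds are added after overnight (12 h) attachment and left 24 hr, and signal loss in luminescence marks inhibition.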
% is scaled to controls: 0 for no effect and ±100 for the full control effect; potency is read from the fitted curve at half-maximal effect; tags tell the direction and shape of the fitted curve.
Also: nearly all actives have a fitted effect of over 55% in size.

Activity change, negative = inhibition, inactive:
CCOC(=O)c1c(NC(=O)CSc2nc(-c3ccc(OC)cc3)cc(C(F)(F)F)n2)sc(C)c1C 9.97%
CCN(CC)S(=O)(=O)c1cccc2cccnc12 -10.5%
C/C(=N\NC(=O)c1c(Cl)cnn1C)c1ccc(NC(=O)c2ccncc2)cc1 -7.47%
Cc1csc2nc(COc3ccc(NC(=O)C(C)C)cc3)cc(=O)n12 -2.27%
CCOc1ccc(NC(=O)Cc2c(O)c3ccccc3[nH]c2=O)cc1 4.45%
COc1ccc(NC(=O)C2Cc3c(-c4cccc(C(C)=O)c4)ccnc3O2)cc1OC (stereo not drawn) -24.1%
N=C1C(c2nc3ccccc3s2)=C(O)CN1c1ccccc1 -1.87%
COC(=O)c1sc(N2C(=O)c3oc4ccc(C)cc4c(=O)c3C2c2ccc(O)c(OC)c2)nc1C (stereo not drawn) 13.8%
CC(=O)c1cccc(NC(=O)CCn2nc(C)c(S(=O)(=O)N(C)C)c2C)c1 -3.52%
CCOC(=O)c1cc2ccccc2n1C1CCN(C)CC1 -28.6%
COc1ccc(-c2cc(C)no2)cc1S(=O)(=O)N1CCCC(C)C1 (stereo not drawn) -25.8%
CC(C)CCNC(=O)c1cc(-c2ccc(Br)s2)nc2ccccc12 5.77%

Potency, active:
O=C1[C@H]2[C@@H](c3ccc(F)cc3)N3C(=O)N(c4cccc(Br)c4)C(=O)[C@@]3(Cc3ccccc3)[C@H]2C(=O)N1C1CCCCC1 2.82 µM
COc1cccc(NC(=O)CN(C)C(=O)c2cc(-c3ccc(F)cc3)nc3ccccc23)c1 7.08 µM
Cc1ccc(C(=O)CSc2nnnn2C(C)C)c(C)c1 4.47 µM
O=C(OCC(=O)N(CCc1ccccc1)Cc1ccccc1)c1ccccc1NCCO 10 µM
Cc1ccc(Cn2c(C(C)Nc3nc(-c4ccc(F)cc4)cs3)nc3cc(C(F)(F)F)ccc32)cc1 (stereo not drawn) 10 µM

Potency, inconclusive:
COc1cc(C(=O)Nc2ccc3oc(-c4cccnc4)nc3c2)cc(OC)c1OC 11.2 µM [inhibitor, single point]
Cc1cc(N/N=C/c2ccccc2)nc(N2CCOCC2)n1 12.6 µM [inhibitor, single point]
COC(=O)c1cccc(NC(=O)CC2C(=O)NCCN2C(=O)Nc2cc(C)cc(C)c2)c1 (stereo not drawn) 28.2 µM [inhibitor, partial curve, poor fit]
Cc1ccc(C(C)C)c(OCCNCCc2ccccc2)c1 10 µM [inhibitor, partial curve, poor fit]
CC1CCCC(C)N1C(=O)CSc1nnnn1Cc1ccccc1 (stereo not drawn) 7.08 µM [inhibitor, partial curve, poor fit]
Cc1ccccc1C(=O)NC(CC(C)C)C(=O)NN1C(=O)c2ccccc2C1=O (stereo not drawn) 31.6 µM [inhibitor, single point]
C[C@]12C(=O)N(c3ccc(Cl)cc3)C(=O)N1[C@@H]1c3ccccc3OC[C@@H]1[C@H]2c1ccccc1 12.6 µM [inhibitor, partial curve, poor fit]
CCOC(=O)Cc1c(C)nc2cc(-c3ccc(C(C)(C)C)cc3)nn2c1C 7.08 µM [inhibitor, partial curve, poor fit]
Cc1csc2c(NC3CCN(Cc4ccccc4)CC3)ncnc12 14.1 µM [inhibitor, partial curve, poor fit]
O=C(COc1cccc2c1CCN(Cc1ccc(Br)cc1)C2=O)N1CCOCC1 28.2 µM [inhibitor, single point]
CCc1ccc(NC(=O)C2CCCN2S(=O)(=O)c2ccc3nc(-c4ccccc4)[nH]c3c2)cc1 (stereo not drawn) 8.91 µM [inhibitor, partial curve, poor fit]
CP(=O)(Nc1cc(Cl)ccc1Cl)c1nc2c(s1)CCCC2 (stereo not drawn) 31.6 µM [inhibitor, single point]
CCOc1ccc2nc3cc(NCc4ccc(OC)cc4)ccc3c(N)c2c1 28.2 µM [inhibitor, single point]
COc1ccccc1Cn1c(=S)[nH]c2cc(C(=O)N3CC(C)CC(C)C3)ccc2c1=O (stereo not drawn) 28.2 µM [inhibitor, single point]
COC(=O)c1ccc(C(=O)OC)c(NC(=O)c2c(-c3ccccc3)noc2C)c1 2.82 µM [inhibitor, full curve, poor fit]
CC(C)C(=O)N1CCN(c2ccccc2NC(=O)COc2ccc(C3CCCCC3)cc2)CC1 14.1 µM [inhibitor, single point]
Cc1cc(Oc2nnnn2-c2ccccc2)ccc1Cl 12.6 µM [inhibitor, partial curve]
FC(F)(F)c1cc(-c2ccco2)nc(NCc2cccnc2)n1 10 µM [inhibitor, single point]
Cc1ccccc1OCC(=O)NCC(C)(C)N1CCOCC1 10 µM [inhibitor, single point]
C=CCN(c1ccccc1)S(=O)(=O)c1cccc(C(=O)Nc2cc(C)ccn2)c1 22.4 µM [inhibitor, single point]
CCCCC(CC)CNC(=O)CCCCn1c(=O)[nH]c2ccsc2c1=O (stereo not drawn) 3.98 µM [inhibitor, partial curve, poor fit] and 7.94 µM [inhibitor, partial curve, poor fit]
CCC(C)(C)C1CCC(=NNC(=S)Nc2cccnc2)CC1 (stereo not drawn) 28.2 µM [inhibitor, single point]
O=C(COc1ccccc1F)NCCc1ccc2c(c1)OCCO2 8.91 µM [inhibitor, single point]
N=C(N1CCCc2ccccc21)N1CCCc2ccccc21 10 µM [inhibitor, partial curve, poor fit]
CCCc1nc(NCC2CCCO2)c2nnn(Cc3ccccc3)c2n1 (stereo not drawn) 7.94 µM [inhibitor, partial curve, poor fit]
CCOc1ccccc1NC(=O)c1cc(-c2cc(OC)c(OC)c(OC)c2)nc2ccccc12 28.2 µM [inhibitor, single point]
O=[N+]([O-])c1ccccc1N/N=C1\CC2CC=CC12 (stereo not drawn) 28.2 µM [inhibitor, single point]
Cc1ccccc1-c1nc(NCC2CC2)nc2ccsc12 28.2 µM [inhibitor, single point]
CC(NC(=O)COC(=O)CC(c1ccccc1)c1ccccc1)c1ccccc1 (stereo not drawn) 12.6 µM [inhibitor, partial curve, poor fit]
CCN(CC)c1ccc(C2NC(=O)c3ccccc3N2)cc1 (stereo not drawn) 7.94 µM [inhibitor, partial curve, poor fit]
Cc1ccc(Cc2c(-c3ccccc3)nc3ccc(Br)cn23)cc1 28.2 µM [inhibitor, single point]
COc1cccc(NC(=O)Nc2ccc3snnc3c2)c1 11.2 µM [inhibitor, single point]
Nc1ccc(SC(F)(F)F)cc1C(=O)c1ccccc1 28.2 µM [inhibitor, single point]
COC(Cn1c2c(c3cc(C)ccc31)CCCC2NCc1ccccc1)OC (stereo not drawn) 15.8 µM [inhibitor, partial curve, poor fit]
CCOC(=O)CSc1nc2c(sc(=S)n2-c2ccccc2OC)c(=O)n1Cc1ccco1 28.2 µM [inhibitor, single point]
COc1ccc(NS(=O)(=O)c2cccc(NC(=O)C34CCC(CC3)C4)c2)cc1 28.2 µM [inhibitor, single point]
CCn1c(CNC(=O)COc2ccc(C(C)C)cc2)nnc1SCC(=O)Nc1ccccc1C(C)C 10 µM [inhibitor, partial curve, poor fit]
CC1(C(=O)NCc2ccccc2Br)CCN1Cc1ccc2ccccc2c1 (stereo not drawn) 11.2 µM [inhibitor, partial curve, poor fit]
COc1ccc(Cl)cc1NC(=O)CN(C)CC(=O)Nc1ccccc1C(F)(F)F 20 µM [inhibitor, single point]
CC(NC(=O)COC(=O)c1c[nH]c2ccccc12)c1ccccc1 (stereo not drawn) 28.2 µM [inhibitor, single point]
CCC(CO)NCc1ccc(OCC(O)c2ccccc2)c(OC)c1 (stereo not drawn) 14.1 µM [inhibitor, partial curve, poor fit]
Cc1[nH]c2c(C)cccc2c1CN1CCC(CO)(Cc2ccccc2)CC1 11.2 µM [inhibitor, partial curve, poor fit]
COc1ccc([C@@H]2[C@@H]3C(=O)N(C(C)(C)C)C(=O)[C@@H]3[C@]3(Cc4ccccc4)C(=O)N(c4cccc(F)c4)C(=O)N23)cc1 15.8 µM [inhibitor, single point]
COc1ccc2[nH]cc(CCNC(=O)C3CC(=O)N(c4ccc(Cl)cc4)C3)c2c1 (stereo not drawn) 20 µM [inhibitor, partial curve, poor fit]
CC(=O)Oc1ccc(Cn2c(C)c(C(=O)NCc3cccc(C(F)(F)F)c3)sc2=O)cc1 15.8 µM [inhibitor, partial curve, poor fit]
CNC(=S)N/N=C/c1cn(Cc2ccc(F)cc2)c2ccccc12 12.6 µM [inhibitor, partial curve, poor fit]

Source: PubChem BioAssay AID624417 (National Center for Advancing Translational Sciences (NCATS), 2012)
